Where two headings read alike, the source gives them in different places.
What was measured:
[1] = tested on: mice; conditions: intraperitoneal injection in mice, doses of 30, 100 and 300 mg/kg
[2] = tested on: mice; assay: MES screen after intraperitoneal injection in mice; format: in vivo; conditions: doses of 30, 100 and 300 mg/kg
[3] = tested on: mice; conditions: intraperitoneal injection in mice, doses of 30, 100 and 300 mg/kg; remark: listed apart in the source

| Compound | acPTZ screen 0.5 h: minimum dose whereby bioactivity was demonstrated in half or more of the mice ([1]; 0.5 h) [mg/kg] | acPTZ screen 4 h: minimum dose whereby bioactivity was demonstrated in half or more of the mice ([1]; 4 h) [mg/kg] | MES screen 0.5 h: minimum dose whereby bioactivity was demonstrated in half or more of the mice ([2]; 0.5 h) [mg/kg] | MES screen 4 h: minimum dose whereby bioactivity was demonstrated in half or more of the mice ([2]; 4 h) [mg/kg] | toxicity screen 0.5 h: minimum dose whereby bioactivity was demonstrated in half or more of the mice ([3]; 0.5 h) [mg/kg] | toxicity screen 4 h: minimum dose whereby bioactivity was demonstrated in half or more of the mice ([3]; 4 h) [mg/kg] | acPTZ screen: minimum dose whereby bioactivity was demonstrated in half or more of the mice ([1]; 0.5 h) [mg/kg] | MES screen: minimum dose whereby bioactivity was demonstrated in half or more of the mice ([2]; 0.5 h) [mg/kg] | MES screen: minimum dose whereby bioactivity was demonstrated in half or more of the mice ([2]; 4 h) [mg/kg] | toxicity screen: minimum dose whereby bioactivity was demonstrated in half or more of the mice ([3]; 0.5 h) [mg/kg] | toxicity screen: minimum dose whereby bioactivity was demonstrated in half or more of the mice ([3]; 4 h) [mg/kg] | acPTZ screen: minimum dose whereby bioactivity was demonstrated in half or more of the mice ([1]; 4 h) [mg/kg] |
| --- | --- | --- | --- | --- | --- | --- | --- | --- | --- | --- | --- | --- |
| CCCCOc1ccc(Oc2ccc(C=NNC(N)=O)cc2)cc1 [Compound 5u] | 300 | 300 | 300 | 100 | 300 | 300 | – | – | – | – | – | – |
| CCC(=NNC(N)=O)c1ccc(Oc2ccc(F)cc2)cc1 [Compound 13f] | – | – | – | – | – | – | 100 | 30 | 30 | 300 | 100 | – |
| CCCc1ccc(Oc2ccc(C=NNC(N)=O)cc2)cc1 [Compound 5q] | 300 | – | 100 | 100 | – | 300 | – | – | – | – | – | – |
| CC(=NNC(N)=O)c1ccccc1Oc1ccccc1 [14a] | – | – | – | – | – | – | 300 | 300 | – | 300 | – | – |
| Cc1ccccc1Oc1ccc(C=NNC(N)=O)cc1 [Compound 5n] | 100 | 100 | 30 | 100 | 300 | 300 | – | – | – | – | – | – |
| CCCCc1ccc(Oc2ccc(C=NNC(N)=O)cc2)cc1 [Compound 5r] | – | 100 | 100 | 30 | 300 | 100 | – | – | – | – | – | – |
| NC(=O)NN=Cc1ccc(Oc2ccc(F)cc2Br)cc1 [Compound 5m] | 300 | – | 100 | 100 | 300 | 300 | – | – | – | – | – | – |
| CC(C)(C)c1ccc(Oc2ccc(C=NNC(N)=O)cc2)cc1 [Compound 5s] | – | 100 | 100 | 30 | 100 | 100 | – | – | – | – | – | – |
| NC(=O)NN=Cc1ccc(Oc2ccc(-c3ccccc3)cc2)cc1 [Compound 4g] | – | 300 | – | 300 | – | 300 | – | – | – | – | – | – |
| CCc1ccc(Oc2ccc(C=NNC(N)=O)cc2)cc1 [Compound 5p] | 300 | – | 30 | 30 | 300 | 100 | – | – | – | – | – | – |
| NC(=O)NN=Cc1ccc(Sc2ccc(Cl)cc2)cc1 [Compound 16b] | – | – | – | – | – | – | 300 | 100 | 30 | – | 100 | – |
| NC(=O)NN=Cc1ccc(Sc2ccc(F)cc2)cc1 [Compound 16a] | – | – | – | – | – | – | 30 | 30 | 30 | 300 | 100 | – |
| NC(=O)NN=Cc1ccc(Sc2ccc(Br)cc2)cc1 [Compound 16c] | – | – | – | – | – | – | – | 100 | 30 | – | 300 | 300 |
| NC(=O)NN=Cc1ccc(OS(=O)(=O)c2ccccc2)cc1 [Compound 15f] | – | – | – | – | – | – | 30 | 30 | 30 | 300 | 300 | – |

— patent publication USRE38425E1, “Semicarbazones having CNS activity and pharmaceutical preparations containing same” (University of Saskatchewan Technologies, Inc., priority 1995, dated 2004)
